{"source": "the RNAGym collection of RNA variant scans (doi:10.1093/nar/gkz1192)", "parents": {"B1": {"name": "CPEB3 Ribozyme (parent)", "chain": "UAACAGGGGGCCACAGCAGAAGCGUUCACGUCGCAGCCCCUGUCAGAUUCUGGUGAAUCUGCGAAUUCUGCUGUAUAUCUC"}}, "note": "Read counts are not given, so values of variants with three or more changes are uncertain.", "data": [{"variants_of": "B1", "experiment": "self-cleavage, relative activity (ratio to wild type); higher = more cleavage; in vitro, sequencing", "method_in_brief": "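Libraries of CPEB3 self-cleaving ribozyme mutants came from rounds of error-prone PCR and carried barcodes, which DNA sequencing matched to variants. In vitro transcription used T7 RNA polymerase at 37°C for 5 hours, with a further 15 min in DNase I before EDTA stopped the reaction; the ribozymes cleaved during both steps. The RNA was reverse transcribed with template switching and sequenced on Illumina. Relative activity is the cleaved/total read fraction of a variant divided by that of the unmutated ribozyme, averaged over three batches with at least 5 reads.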", "values": [{"variant": "UAACAGGGGGCCACCGCAGAAGCGCGCACGUCGCAGCCCCUGUCAGAUUCUGGUGGAUCUGCGAAUUCUGCUGUAUAUCGC", "self-cleavage": 0.11}, {"variant": "UAACAGGGGGCCACCGCAGAAGCGGUCACGUCGCAGCCCCUGUCAGAUUCUGGUGAAUCUGCGAAUCCUGCUGUAUAUCUC", "self-cleavage": 0.08}, {"variant": "UAACAGGGGGCCACCGCAGAAGCGUACACGUCGCAGCCCCUGUCUGAUUCUGGUGAAUCUGCGAAUUCUGCUGUAUAUCUC", "self-cleavage": 0.33}, {"variant": "UAACAGGGGGCCACCGCAGAAGCGUACACGUCGCAGCCCCUGUCAGAUUCUGGUGCAUCUGCGAAUUCUGCUGUAUAUCAC", "self-cleavage": 0.25}, {"variant": "UAACAGGGGGCCACCGCAGAAGCGUACACGUCGCAGCCCCUGUCAGAUCCUGGUGAAUCUGCGAAUUCUGCCGUAUACCUC", "self-cleavage": 0.26}, {"variant": "UAACAGGGGGCCACCGCAGAAGCGUCCACGUCGCGGCCCCUGACAGAUUCUGGUGAAUCUGCGAAUUCUGCUGUAAAUCUC", "self-cleavage": 0.14}, {"variant": "UAACAGGGGGCCACCGCAGAAGCGUCCACGUCGCAGCCCCUGUCAGAUUCUGGUGAGUCUGCGAAUUCUGCUGUAUACCUC", "self-cleavage": 0.35}, {"variant": "UAACAGGGGGCCACCGCAGAAGCGUCCACGUCGUAGCCCCUGUCAGAUUCUGGUGAAUCUGCGAAUUCUGCUGUAUAUCUC", "self-cleavage": 0.21}, {"variant": "UAACAGGGGGCCACCGCAGAAGCGUCCACGUCGCAGCCCCAGUCAGUUUCUGGUGAAUCUGCGAAUUCUUCUGUAUACCUC", "self-cleavage": 0.11}, {"variant": "UAACAGGGGGCCACCGCAGAAGCGUCCACGUCGCAGCCCCAGUCAGAUUCUGGUGAAUCUGCGUAUUCUGCUGUAUAUUUC", "self-cleavage": 0.08}, {"variant": "UAACAGGGGGCCACCGCAGAAGCGUCCACGUCGCAGCCCCUGCCAGAAUCUGGUGAAUCUGCGAAUUCUGCUGUAUAUCUC", "self-cleavage": 0.07}, {"variant": "UAACAGGGGGCCACCGCAGAAGCGUCCACGUCGCAGCCCCUGUCAGACUCUGGUGAAUCUGCGAAUUCUGCUGUAUAUCUC", "self-cleavage": 0.4}, {"variant": "UAACAGGGGGCCACCGCAGAAGCGUCCACGUCGCAGCCCCUGUCAGACUCUGGUGAAUCUGCGACUUCUGCUGUAUAUCUC", "self-cleavage": 0.04}, {"variant": "UAACAGGGGGCCACCGCAGAAGCGUCCACGUCGCAGCCCCUGUCAGAUUCUGGUGAAUCAGCGAAUCCUGCUGUAUAUCUC", "self-cleavage": 0.18}, {"variant": "UAACAGGGGGCCACCGCAGAAGCGUUCACGACGCAGCCCCUGUCAGAUUCUGGCGAAUCUGCGAAUUCUGCUGUAUAUCUC", "self-cleavage": 0.53}, {"variant": "UAACAGGGGGCCACCGCAGAAGCGUUCACGCCGCGGCCCCUGUCAGAUUCUGGUGAAUCCGCGAAUUCUGCUGUAUAUCUC", "self-cleavage": 0.8}, {"variant": "UAACAGGGGGCCACCGCAGAAGCGUUCACGCCGCAGCCCCUGUCAGAUUCUGGUGGAUCUGCGAAUUCUGCUGUAAAUCUC", "self-cleavage": 0.23}, {"variant": "UAACAGGGGGCCACCGCAGAAGCGUUCACGCCGCAGCCCCUGACAGAUUCUGGUGAAUCUGCAGAUUCCGCUGUAUAUCUC", "self-cleavage": 0.09}, {"variant": "UAACAGGGGGCCACCGCAGAAGCGUUCACGGCGCAGCCCCUGGCAGAUUCAGGUGAAUCUGCGAAUUCUGCUGUAUAUCUC", "self-cleavage": 0.24}, {"variant": "UAACAGGGGGCCACCGCAGAAGCGUUCACGUCGCAGCCCCAGUCGGAUUCUGGUGAAUCUGCGGAUUCUGCUGUAUAUCUC", "self-cleavage": 0.06}, {"variant": "UAACAGGGGGCCACCGCAGAAGCGUUCACGUCGCAGCCCCAGUCAGAUUCUGGUGAAUCUGCGAUUUCUGCUGUAUAUCUC", "self-cleavage": 0.23}, {"variant": "UAACAGGGGGCCACCGCAGAAGCGUUCACGUCGCAGCCCCCGUCAGAUACUGGUGAAUCUGCGAAUUCUGCUGUAUAUCUC", "self-cleavage": 0.38}, {"variant": "UAACAGGGGGCCACCGCAGAAGCGUUCACGUCGCAGCCCCUGACUGAUUCUGGUGAAUCUGCGAAUUCUGCUGUAUAUCUC", "self-cleavage": 0.73}, {"variant": "UAACAGGGGGCCACCGCAGAAGCGUUCACGUCGCAGCCCCUGCCAGAUUCUGGUGAGUCUGCGAAUUCUGCUGUAUAUCUC", "self-cleavage": 0.42}, {"variant": "UAACAGGGGGCCACCGCAGAAGCGUUCACGUCGCAGCCCCUGCCAGAUUCUGGUGAGUCUGCGAAUUCUGCUGUAUACCUC", "self-cleavage": 0.32}, {"variant": "UAACAGGGGGCCACCGCAGAAGCGUUCACGUCGCAGCCCCUGCCAGAUUCUGGUGAAUCUGCGAGUUCUGCUGUAUAUCCC", "self-cleavage": 0.18}, {"variant": "UAACAGGGGGCCACCGCAGAAGCGUUCACGUCGCAGCCCCUGCCAGAUUCUGGUGAAUCUGCGAAUACUGCUGUAUAUCUC", "self-cleavage": 0.19}, {"variant": "UAACAGGGGGCCACCGCAGAAGCGUUCACGUCGCAGCCCCUGUCAGAAUCUGGUGAAUCAGCGAAUUCUGCUGUAUGUCUC", "self-cleavage": 0.48}, {"variant": "UAACAGGGGGCCACCGCAGAAGCGUUCACGUCGCAGCCCCUGUCAGAUCCUGGUGAAUCUGCGAAUUCUGCUGUAUAUAUC", "self-cleavage": 1.19}, {"variant": "UAACAGGGGGCCACCGCAGAAGCGUUCACGUCGCAGCCCCUGUCAGAUCCUGGUGAAUCUGCGAAUUCUGCCGUAUAUCUC", "self-cleavage": 0.21}, {"variant": "UAACAGGGGGCCACCGCAGAAGCGUUCACGUCGCAGCCCCUGUCAGAUUCAGGUGGAUCUGCGAAUUCUGCUGUAUAUCUC", "self-cleavage": 0.35}, {"variant": "UAACAGGGGGCCACCGCAGAAGCGUUCACGUCGCAGCCCCUGUCAGAUUCAGGUGAAUCUGCGAAUUCUGCUGUAUAUCCC", "self-cleavage": 1.09}, {"variant": "UAACAGGGGGCCACCGCAGAAGCGUUCACGUCGCAGCCCCUGUCAGAUUCCGGCGAAUCCGCGAAUCCUGCAGUAUAUCUC", "self-cleavage": 0.13}, {"variant": "UAACAGGGGGCCACCGCAGAAGCGUUCACGUCGCAGCCCCUGUCAGAUUCUGGUGAAACUGCGAAUUCUGCUGUAUUUCUC", "self-cleavage": 0.42}]}]}
